Experimental data: the supplement of paper PMC3334620
Whole data set: some 33,000 sequences, median “E-score (-0.5 to 0.5)” near -0.011, cut for the highest 2% near 0.28. The list shows a part of the results.

What follows are sequences tested against T1, Gcr1 (UniProt P07261) (assay: PBM E-score (8-mer binding enrichment) (E-score (-0.5 to 0.5)); higher = stronger / more preferred TF binding; most listed sequences are background and not binding sites). Settings: protein concentration: 100 nM; construct: GST-full length.
T1 sequence: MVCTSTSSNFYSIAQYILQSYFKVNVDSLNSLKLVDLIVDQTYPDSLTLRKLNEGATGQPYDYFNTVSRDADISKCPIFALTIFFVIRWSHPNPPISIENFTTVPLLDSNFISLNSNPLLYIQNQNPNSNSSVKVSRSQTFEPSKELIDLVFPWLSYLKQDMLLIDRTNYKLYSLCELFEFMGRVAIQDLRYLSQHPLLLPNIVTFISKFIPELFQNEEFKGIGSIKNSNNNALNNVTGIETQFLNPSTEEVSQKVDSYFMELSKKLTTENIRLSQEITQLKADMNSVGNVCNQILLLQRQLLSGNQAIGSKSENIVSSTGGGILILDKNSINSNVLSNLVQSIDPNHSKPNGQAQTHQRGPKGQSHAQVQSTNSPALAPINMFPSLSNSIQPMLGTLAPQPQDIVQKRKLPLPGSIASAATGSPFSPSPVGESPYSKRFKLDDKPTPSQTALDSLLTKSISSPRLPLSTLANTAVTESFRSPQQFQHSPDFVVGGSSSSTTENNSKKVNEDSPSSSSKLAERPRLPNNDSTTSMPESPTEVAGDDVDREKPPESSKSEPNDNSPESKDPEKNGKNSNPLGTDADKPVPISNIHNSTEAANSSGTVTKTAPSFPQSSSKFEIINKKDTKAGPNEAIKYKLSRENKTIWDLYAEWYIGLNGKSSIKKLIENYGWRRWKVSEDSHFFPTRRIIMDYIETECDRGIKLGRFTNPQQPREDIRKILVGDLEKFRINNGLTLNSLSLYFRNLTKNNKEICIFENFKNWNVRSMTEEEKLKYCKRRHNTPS
Outline: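 GST-tagged yeast TFs (full-length or DNA-binding domain) were made by PURExpress in vitro transcription/translation and applied at about 100-200 nM to universal all-10-mer Agilent arrays. The arrays were made double-stranded by primer extension, on fresh or once-stripped slides. Bound protein was detected with fluorescent anti-GST, and scans were normalised with masliner. Each ungapped eight-base word, pooled with its reverse complement, received an E-score (modified Wilcoxon-Mann-Whitney statistic) from the Universal PBM Analysis Suite.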

Sequence | PBM E-score
CGAACCGC | -0.0735
TATCATAA | -0.0405
CGACGCGC | 0.0401
GACGCGCA | -0.0116
AATGACGC | -0.155
AACACCGG | 0.0694
CGAGGCGC | 0.196
AACCGGGG | 0.0848
AGGGGTAA | -0.138
ACAGGACT | -0.0157
AAGATGGT | 0.0834
GATAGATA | 0.11
GATCAGGA | 0.172
TGTGAAAA | -0.00217
AAGGAACT | 0.0335
ACATATAG | 0.146
CTCCACCC | -0.106
GATTGCAC | -0.18
CGAATTGA | -0.0169
AAACGACA | -0.0532
CCTCTGCG | -0.142
AGTATTGA | -0.208
ACGTAAAG | -0.00591
AGATCTGA | -0.0898
TCTGTACA | -0.00473

Sequence | PBM E-score
CCTAGTCC | -0.317
CGCGTGTA | 0.0631
ACGCGTCG | -0.147
CGATTTTC | 0.108
CATTCTCC | -0.166
AGCTACGA | -0.0486
TCCATCCA | -0.0825
TCCTTCAA | -0.00823
ACGATGTG | 0.106
GTCGCTCA | -0.0256
AAGGCGGG | -0.0567
CTCAGCCC | -0.266
GAACACTC | 0.082
CTTTCGCC | -0.364
ACAACGCT | -0.0159
AGTAGGTA | -0.0102
GCTGCCGA | 0.277
CCGCCTAA | 0.0346
GTACTCTA | -0.154
TCCTTCGA | -0.0266
ATAAGGTA | -0.145
GAAAGTTC | -0.0399
GATCGAAA | -0.0376
GAAGATTC | 0.219
AAGAGTTC | -0.272

Sequence | PBM E-score
AATATCAA | 0.024
AGCTTGGA | -0.105
ACAGGTCC | -0.126
TAACACAA | 0.103
AGACAAGA | 0.0392
CGGTAGAC | -0.0698
AACGTCCT | 0.043
AATTGCGA | 0.0612
CCGGCCAG | -0.113
ATTTACAC | 0.132
CCCCATTA | -0.0791
GAATGTAC | -0.00553
AAGAACGC | 0.00618
CTCGAGCC | 0.0479
ATTGGTTG | 0.0639
ATAAAAAT | 0.125
CTGTAATA | 0.193
CCCGGGGA | 0.117
GATAGAAC | -0.0492
ATTGCTGA | -0.0468
AGATCTTC | -0.0749
ATCCGGAC | -0.106
AACGTTAA | -0.0454
ATTAGGAA | 0.123
AGCGGACT | 0.0631

Sequence | PBM E-score
GATTTCCC | -0.177
CGGCTAAC | -0.0949
CAATGTAC | 0.127
GGATCAAC | -0.00409
GATGACTA | -0.0312
ATACTAGC | -0.139
GTCGGTGA | -0.195
GATCCCTA | 0.145
CACGAAAA | 0.00245
ACCTTGTA | 0.0466
ATAATATG | 0.135
CCCCTGTC | -0.212
CCGTTTTC | 0.0901
AACTCCCA | -0.0821
ACACCTTG | 0.0177
AGGCCTAA | -0.0235
GACGCACC | 0.22
GGATCGAA | -0.0746
CAACCGTA | -0.193
AAATAGCG | 0.147
CGCTATCA | -0.0385
AATCCTCA | -0.0389
AAGCTGCC | 0.347
CAAAACTA | 0.0814
AACCTCTT | 0.16

Sequence | PBM E-score
AACGCTAC | -0.116
GCAAATCA | 0.0593
ATATCGTC | 0.0622
AAGCTCAT | -0.178
GCTCTCAC | -0.288
CCTCACCC | -0.133
AGGATCCA | 0.263
ACGCTGCA | 0.0243
CCGAGAAC | -0.0067
AGGTCCGG | -0.188
ACAGAACG | -0.0275
CGCCTGCC | -0.106
GCTACCGA | 0.0446
CTCCGCTA | -0.0677
AAGTCCGC | -0.0609
CACTGCGG | 0.112
CAGAGGCC | -0.0492
TCTCCACA | 0.137
AACAATGC | -0.18
ACGAGATA | 0.0475
GAAAATCC | 0.0586
AAGGACCC | 0.104
AAGACCCT | -0.027
GCGCACGA | 0.101
GGATATCA | -0.071

Sequence | PBM E-score
GTATGGAC | -0.0746
CCTTAGAG | -0.135
CCGTCGTA | 0.00133
CACTTGGC | -0.0971
CCGTAATC | -0.133
AACTCCCC | -0.134
TCTACTCA | -0.0572
CCTATTCA | 0.114
ACTCGCAG | -0.0415
TTATAAAA | 0.178
GAACTGTC | -0.0473
GAGAGGAC | -0.134
CCTCAGCA | 0.0328
CGAACTCG | -0.127
AGGCGATG | 0.14
AATTCCCC | 0.0615
CACCCGTG | -0.158
CGTGGTTC | 0.0376
GTCTATTA | 0.0633
CTTTAGAC | 0.0624
GGAATGAA | -0.0393
AAGTACAT | -0.0562
TCAGTAGA | -0.0326
AAGTTCGC | -0.0544
ACTGCCCC | -0.166

Sequence | PBM E-score
CTAGGAAG | 0.0602
TCCTGTCA | 0.221
GCTCAATA | -0.135
CCAGATAC | 0.294
ATAAATAG | 0.0525
CTGCAGAC | -0.185
GCATTATA | -0.068
AGGCCTAG | -0.214
AGTTCAAA | -0.0376
AACCCTAT | 0.0659
CAGAATAA | 0.174
CGTCTAAA | 0.233
CCGGCATA | 0.0787
CTGAGTAC | 0.144
GCTCGGCA | 0.0791
GGTGCGAC | -0.118
CAATCTAC | -0.0542
CACTATAG | -0.0625
GAGAAGGA | -0.19
CGGTCATC | -0.156
AGCCACTA | 0.235
AAAATGGG | 0.29
